Measured values taken from the supplement of paper PMC12645437, “Orthogonal IMiD-Degron Pairs Induce Selective Protein Degradation in Cells” (ACS Chemical Biology, 2025).
The list shows a part of the results.

Each sequence was assayed against no compound (DMSO) (assay: log2 fold change of degron read counts, EGFP-low vs EGFP+ sorted cells; higher = lower degron-EGFP level without compound (poor expression or instability)). Conditions: compound: DMSO control; 18 h.
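Further: jurkat cells carrying a lentiviral library of mutant zinc finger degrons fused to EGFP plus mCherry, mCherry+ cells FACS sorted, degron abundance counted by next-generation sequencing.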

Sequence | log2 fold change of degron read counts
FNCEVCGAGFTQKGNLLRHIKL | -1.99
FHCSVCGHNFTQKGNLLRHIKL | -0.423
FNCEICGHWFTQKGNLLRHIKL | 0.472
FLCPICGAVFTQKGNLLRHIKL | -0.241
FSCDQCGALFTQKGNLLRHIKL | -1.34
LKCPICGFECTQKGNLLRHIKL | -0.0518
FKCPICGHHFTQKGNLLRHIKL | -0.563
FHCEVCGASFTQKGNLLRHIKL | -1.85
LYCPICGFWCTQKGNLLRHIKL | 1.99
FQCPICGHCFTQKGNLLRHIKL | -0.0243
FCCPQCGARFTQKGNLLRHIKL | -0.514
FICPQCGAYFTQKGNLLRHIKL | 1.19
FRCPQCGALFTQKGNLLRHIKL | -0.023
LYCEICGFMCTQKGNLLRHIKL | 0.836
FMCNVCGAVFTQKGNLLRHIKL | -0.892
FICPICGAFFTQKGNLLRHIKL | 0.581
FGCNICGAVFTQKGNLLRHIKL | 0.0956
FFCSVCGHDFTQKGNLLRHIKL | -0.265
LICPICGFKCTQKGNLLRHIKL | 0.254
FDCNICGADFTQKGNLLRHIKL | -0.5
LYCPICGFTCTQKGNLLRHIKL | 0.825
FLCEICGATFTQKGNLLRHIKL | -2.09
FQCPVCGAFFTQKGNLLRHIKL | -0.103
FTCNVCGAGFTQKGNLLRHIKL | -1.03
FYCDICGANFTQKGNLLRHIKL | -1.28

Sequence | log2 fold change of degron read counts
FVCEICGHTFTQKGNLLRHIKL | -1.5
FNCPICGREFTQKGNLLRHIKL | -0.911
FDCEVCGAEFTQKGNLLRHIKL | -2.41
FTCEICGHVFTQKGNLLRHIKL | -0.986
LYCNQCGFFCTQKGNLLRHIKL | 2.11
FTCNICGAQFTQKGNLLRHIKL | -1.18
FFCNVCGAVFTQKGNLLRHIKL | 0.86
FYCNQCGAWFTQKGNLLRHIKL | 1.45
FACPICGRLFTQKGNLLRHIKL | -0.089
FNCEVCGALFTQKGNLLRHIKL | -1.19
LMCEICGFVCTQKGNLLRHIKL | 0.353
FHCPICGHAFTQKGNLLRHIKL | -0.619
FVCEQCGAPFTQKGNLLRHIKL | -2.46
FWCNICGAIFTQKGNLLRHIKL | 1.74
FICPVCGAGFTQKGNLLRHIKL | -0.0235
FDCPVCGACFTQKGNLLRHIKL | -0.433
FGCNQCGAGFTQKGNLLRHIKL | -0.299
FICNQCGRIFTQKGNLLRHIKL | 0.844
FHCDQCGAWFTQKGNLLRHIKL | -0.613
LKCEICGFDCTQKGNLLRHIKL | -0.0149
FCCNQCGAAFTQKGNLLRHIKL | 0.00643
FWCPICGHYFTQKGNLLRHIKL | 1.86
FVCPQCGASFTQKGNLLRHIKL | -1.26
FHCEICGRQFTQKGNLLRHIKL | -1.64
FVCNICGAVFTQKGNLLRHIKL | -0.198
